Results as given in a collection of fitness landscapes (doi:10.1016/j.celrep.2020.107928).
The full ranking holds about 81,000 sequences; the median of “one-hybrid fitness for binding parS DNA” is about -0.17, and the highest 2% start at about 0.51. This is one part of the list.

B1: Caulobacter ParB omega fusion; a variant is named by its letters at X, in order, B8GW30 (parent)
chain: MESVVVGEPGMSEGRRGLGRGLSALLGEVDAAPAQAPGEQLGGSREAPIEILQRNPDQPRRTFREEDLEDLSNSIREKGVLQPILVRPSPDTAGEYQIVAGERAWRAAQRAGLKTVPIMVRELDDLAVLEIGIIENVQRADLNVLEEALSYKVLMEKFERTQENIAQTIGKSXSHVANXMRLLXLPDEVQSYLVSGELTAXHARAIAAAADPVALAKQIIEGGLSVRETEALARKAPNLSAGKSKGGRPPRVKDTDTQALESDLSSVLGLDVSIDHRGSTGTLTITYATLEQLDDLCNRLTRGI

Variants of: B1
Test: one-hybrid fitness for binding parS DNA (scaled: cognate 1, non-cognate 0); higher = stronger binding
Settings: with parS DNA site
Summary of the method: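 Fitness is the rescaled log change in variant-to-wild-type read ratio, measured by Illumina sequencing of plasmids before and after bacterial one-hybrid selection. The scale puts cognate at 1 and non-cognate at 0. Selection of Caulobacter ParB libraries, four specificity codons randomised, took place in E. coli USO with a HIS3 reporter, site 19 bp from the promoter, over 48 hours at 37°C on M9-minus-histidine with 0.1 mM IPTG and 5 mM 3-AT.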

Row | Variant | one-hybrid fitness for binding parS DNA
1 | GVET | ≤ 0.2
2 | CMIS | ≤ 0.2
3 | VTRV | ≤ 0.2
4 | HDLR | ≤ 0.2
5 | GPAV | ≤ 0.2
6 | PYPK | ≤ 0.2
7 | RMMC | 0.992
8 | YGSV | ≤ 0.2
9 | PNWS | ≤ 0.2
10 | LGNV | ≤ 0.2
11 | MNLL | ≤ 0.2
12 | PTCF | ≤ 0.2
13 | STTW | ≤ 0.2
14 | FNAS | ≤ 0.2
15 | VRFG | ≤ 0.2
16 | NGGR | ≤ 0.2
17 | PEAL | ≤ 0.2
18 | ATDG | ≤ 0.2
19 | CTYR | ≤ 0.2
20 | QNHP | ≤ 0.2
21 | IRYM | ≤ 0.2
22 | QDSW | ≤ 0.2
23 | WVEG | ≤ 0.2
24 | PTEL | ≤ 0.2
25 | ELTK | ≤ 0.2

Row | Variant | one-hybrid fitness for binding parS DNA
26 | ASPD | ≤ 0.2
27 | VALM | ≤ 0.2
28 | NYTH | ≤ 0.2
29 | NMVG | ≤ 0.2
30 | KMYG | ≤ 0.2
31 | LSRW | ≤ 0.2
32 | KRIH | ≤ 0.2
33 | WILS | ≤ 0.2
34 | HLAY | ≤ 0.2
35 | CKKS | ≤ 0.2
36 | KFIS | ≤ 0.2
37 | RSIQ | ≤ 0.2
38 | KKQG | ≤ 0.2
39 | TKMC | ≤ 0.2
40 | CCDY | ≤ 0.2
41 | NMNV | ≤ 0.2
42 | YNGL | ≤ 0.2
43 | GNLP | ≤ 0.2
44 | KYFM | ≤ 0.2
45 | HVRC | ≤ 0.2
46 | AKST | ≤ 0.2
47 | CVDD | ≤ 0.2
48 | GITM | ≤ 0.2
49 | LNMV | ≤ 0.2
50 | TSMK | ≤ 0.2

Row | Variant | one-hybrid fitness for binding parS DNA
51 | RGVR | ≤ 0.2
52 | RAMN | 0.41
53 | PAGE | ≤ 0.2
54 | RMKE | ≤ 0.2
55 | DDRV | ≤ 0.2
56 | IWTC | ≤ 0.2
57 | VRRI | ≤ 0.2
58 | TKPP | ≤ 0.2
59 | PPSA | ≤ 0.2
60 | MNRD | ≤ 0.2
61 | EADV | ≤ 0.2
62 | QCAN | ≤ 0.2
63 | VLYS | ≤ 0.2
64 | RLHF | 0.225
65 | PLRC | ≤ 0.2
66 | IEDE | ≤ 0.2
67 | PFKV | ≤ 0.2
68 | LDTF | ≤ 0.2
69 | NDQE | ≤ 0.2
70 | YWHY | ≤ 0.2
71 | CWHL | ≤ 0.2
72 | LLMT | ≤ 0.2
73 | LIGN | ≤ 0.2
74 | KMTR | ≤ 0.2
75 | HVHS | ≤ 0.2

Row | Variant | one-hybrid fitness for binding parS DNA
76 | RKFR | ≤ 0.2
77 | EKHT | ≤ 0.2
78 | PAVR | ≤ 0.2
79 | QMDR | ≤ 0.2
80 | FRER | ≤ 0.2
81 | DAFP | ≤ 0.2
82 | RRKH | 0.623
83 | KSPC | ≤ 0.2
84 | VGWG | ≤ 0.2
85 | FCPC | ≤ 0.2
86 | NKLR | ≤ 0.2
87 | SESK | ≤ 0.2
88 | RYQD | ≤ 0.2
89 | RGHK | ≤ 0.2
90 | SLYT | ≤ 0.2
91 | YRIS | ≤ 0.2
92 | ANSC | ≤ 0.2
93 | NPAA | ≤ 0.2
94 | TWWG | ≤ 0.2
95 | MRTL | ≤ 0.2
96 | RDRW | ≤ 0.2
97 | AWHA | ≤ 0.2
98 | TSMV | ≤ 0.2
